Source: a collection of fitness landscapes (doi:10.1126/science.1257360)
The list shows a part of the results.

B1: PhoQ; a variant is named by its letters at X, in order, P23837 (parent)
chain: MKKLLRLFFPLSLRVRFLLATAAVVLVLSLAYGMVALIGYSVSFDKTTFRLLRGESNLFYTLAKWENNKLHVELPENIDKQSPTMTLIYDENGQLLWAQRDVPWLMKMIQPDWLKSNGFHEIEADVNDTSLLLSGDHSIQQQLQEVREDDDDAEMTHSVAVNVYPATSRMPKLTIVVVDTIPVELKSSYMVWSWFIYVLSANLLLVIPLLWVAAWWSLRPIEALAKEVRELEEHNRELLNPATTRELTSLVRNLNRLLKSERERYDKYRTTLTDLTHSLKTPLXXLQXXLRSLRSEKMSVSDAEPVMLEQISRISQQIGYYLHRASMRGGTLLSRELHPVAPLLDNLTSALNKVYQRKGVNISLDISPEISFVGEQNDFVEVMGNVLDNACKYCLEFVEISARQTDEHLYIVVEDDGPGIPLSKREVIFDRGQRVDTLRPGQGVGLAVAREITEQYEGKIVAGESMLGGARMEVIFGRQHSAPKDE

Variants of: B1
Assay: enrichment ratio after two sorts for PhoP signalling (ratio (wild type AVST 3.29)); higher = more functional
Conditions: with PhoP (E. coli)

Variant	enrichment ratio
DTIQ	≤ 0.25
GHMN	≤ 0.25
TANL	10
TMTQ	14.3
NWLV	≤ 0.25
VWQN	≤ 0.25
GVAL	1.02
DLNW	≤ 0.25
LNSD	≤ 0.25
GHYM	≤ 0.25
HARV	≤ 0.25
QKDC	≤ 0.25
RDCA	≤ 0.25
RMHG	≤ 0.25
GEHS	≤ 0.25
HQDD	≤ 0.25
RSVF	≤ 0.25
VIVA	≤ 0.25
ANDT	≤ 0.25
GYWY	≤ 0.25
GNTV	≤ 0.25
TEGY	1.36
GPAP	≤ 0.25
NFEW	≤ 0.25
LEVW	≤ 0.25

Variant	enrichment ratio
ACTR	10.6
CELL	≤ 0.25
KTFE	≤ 0.25
ERPT	≤ 0.25
EHDV	≤ 0.25
VPYG	≤ 0.25
WGRL	≤ 0.25
SDRV	≤ 0.25
LFKW	≤ 0.25
MSEW	≤ 0.25
FKLT	≤ 0.25
NFFC	≤ 0.25
FKYN	≤ 0.25
VYWS	≤ 0.25
IIYT	≤ 0.25
IIST	≤ 0.25
HEDW	≤ 0.25
TKRG	≤ 0.25
PGSL	≤ 0.25
MTAS	12
IELR	≤ 0.25
LYHN	≤ 0.25
QVWL	1.05
WKYI	≤ 0.25
LRTL	≤ 0.25

Variant	enrichment ratio
IVNL	≤ 0.25
SVWG	≤ 0.25
PKIW	≤ 0.25
NPCC	≤ 0.25
AWQY	≤ 0.25
YPYV	≤ 0.25
GATS	≤ 0.25
TDVS	3.07
ARCK	≤ 0.25
VRQF	≤ 0.25
SHWV	≤ 0.25
LKAI	≤ 0.25
RFED	≤ 0.25
PFQE	≤ 0.25
YKTN	≤ 0.25
QMRF	≤ 0.25
AAFM	≤ 0.25
RGAD	≤ 0.25
RFEE	≤ 0.25
YAKV	≤ 0.25
YKFT	≤ 0.25
HIAN	≤ 0.25
HRPS	≤ 0.25
LYCW	≤ 0.25
EMED	≤ 0.25

Variant	enrichment ratio
YINP	≤ 0.25
FAFF	≤ 0.25
HACQ	≤ 0.25
EDWY	≤ 0.25
WIYP	≤ 0.25
KGQL	≤ 0.25
WRLS	≤ 0.25
KNGI	≤ 0.25
FPAF	≤ 0.25
VVGW	≤ 0.25
KVSS	≤ 0.25
APEF	≤ 0.25
IWVV	≤ 0.25
HQRP	≤ 0.25
VARS	≤ 0.25
DTIT	≤ 0.25
FPGL	≤ 0.25
RVDP	≤ 0.25
PHND	≤ 0.25
RIWE	≤ 0.25
SPAL	≤ 0.25
YYHQ	≤ 0.25
VLMY	≤ 0.25
LDTH	≤ 0.25
TEDM	≤ 0.25

Variant	enrichment ratio
GPIE	≤ 0.25
KSTF	≤ 0.25
NCAS	≤ 0.25
IYAW	≤ 0.25
HVFY	≤ 0.25
EFCS	≤ 0.25
DIMP	≤ 0.25
FHTC	≤ 0.25
YKDP	≤ 0.25
YAWV	≤ 0.25
DKIY	≤ 0.25
QTKI	≤ 0.25
YFMW	≤ 0.25
AKPT	≤ 0.25
AKNR	≤ 0.25
VEDP	≤ 0.25
IYHI	≤ 0.25
MQDY	≤ 0.25
IEVQ	≤ 0.25
TRAW	≤ 0.25
VHPY	≤ 0.25
FAVV	≤ 0.25
MMAG	5.66
LYHI	≤ 0.25
MCQK	≤ 0.25

Variant	enrichment ratio
PFDL	≤ 0.25
RKFN	≤ 0.25
AFFH	≤ 0.25
SQDH	≤ 0.25
SHVS	≤ 0.25
TGDW	≤ 0.25
SWQE	≤ 0.25
QSQG	≤ 0.25
MYAH	≤ 0.25
TVGP	≤ 0.25
GKLP	0.378
HKNE	≤ 0.25
QRYQ	≤ 0.25
ARGA	≤ 0.25
QVHN	≤ 0.25
YRMF	≤ 0.25
YAPT	≤ 0.25
LSKT	≤ 0.25
WCHS	≤ 0.25
HEIQ	≤ 0.25
GEGF	≤ 0.25
RWGM	≤ 0.25
ERNT	≤ 0.25
INGS	≤ 0.25
RVFD	≤ 0.25

Variant	enrichment ratio
EVSH	≤ 0.25
EIGH	≤ 0.25
GMMC	≤ 0.25
ALAL	9.66
DAFM	≤ 0.25
ESND	≤ 0.25
VHKS	≤ 0.25
MCSN	3.34
QYLK	≤ 0.25
SMRW	≤ 0.25
KFPK	≤ 0.25
KAPQ	≤ 0.25
TAHT	9.29
NSHC	≤ 0.25
EDKW	≤ 0.25
TYIP	≤ 0.25
NMSD	≤ 0.25
IWYR	≤ 0.25
AAQK	≤ 0.25
QVGW	2.43
FKCQ	≤ 0.25
DSFE	≤ 0.25
LFER	≤ 0.25
KCPM	≤ 0.25
NVAC	≤ 0.25

Variant	enrichment ratio
GIPH	≤ 0.25
SLIF	≤ 0.25
HQTS	≤ 0.25
IQFP	≤ 0.25
IWHK	≤ 0.25
CLYR	≤ 0.25
VCWF	≤ 0.25
QEFI	7.3
VMCC	3
MSFA	2.31
QPER	≤ 0.25
YLMR	≤ 0.25
TVKW	≤ 0.25
LKRD	≤ 0.25
FNMW	≤ 0.25
YKAL	≤ 0.25
LGSG	≤ 0.25
TYGE	≤ 0.25
ILTW	≤ 0.25
SPLV	≤ 0.25
